# Measurements published in PubChem BioAssay AID504832 (National Center for Advancing Translational Sciences (NCATS), 2011).
# The campaign covered roughly 310,000 compounds. About 18,000 (5.8%) were called active. The shares of active, inactive and inconclusive entries below differ from those in the screen. Calls come from the whole dose curve; as a rule, active = well fitted inhibition curve with a large enough effect; inconclusive = small, poorly fitted or top-dose-only effect, or another doubt; inactive = no such curve, though single readings can be large or run the other way. No potency is given beside an inconclusive call; the fits are too rough.
# Experiment: Primary qHTS for delayed death inhibitors of the malarial parasite plastid, 48 hour incubation
# Conditions: P. falciparum luciferase growth in erythrocytes; series mostly up to 28.7 µM; activity change, negative = inhibition: at the top concentration
# Method in brief: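 Parasite viability was followed by luminescence of a genomically integrated firefly luciferase. Cultures held 0.1% parasitemia at 2% hematocrit (final), incubated under 5% CO2 at 37 C.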
# % is set by controls: 0 for no effect and ±100 for the full control effect; potency is the fitted concentration of half-maximal effect; tags give direction and shape of the fitted curve.
Compound,Potency,"activity change, negative = inhibition"
COc1cc(C2c3[nH]c4ccccc4c3CCN2Cc2cn(C)nc2C)ccc1F (configuration not stated),"inconclusive [inhibitor, partial curve, poor fit]",–
CCCCn1c(=O)[nH]c(=O)c2c1nc(-c1ccc(CC)c([N+](=O)[O-])c1)n2C,"inconclusive [inhibitor, partial curve]",–
COCCN1C=C(C(=O)OC)C(c2cc(Br)c(OC)c(OC)c2)C(C(=O)OC)=C1,active: 3.29 µM,–
Cc1ccccc1NS(=O)(=O)c1cc(C(=O)Nc2cccc([N+](=O)[O-])c2)ccc1C,"inconclusive [inhibitor, partial curve, poor fit]",–
Cc1ccc2cc3c(NC(=O)C4CCCO4)nn(CC(C)C)c3nc2c1 (configuration not stated),"inconclusive [inhibitor, single point]",–
CCN(C(=O)CN1C(=O)S/C(=C\c2ccccc2OC)C1=O)C1CCS(=O)(=O)C1 (configuration not stated),"inconclusive [inhibitor, partial curve]",–
CCCCn1c(N)c(N(CCC(C)C)C(=O)COC(=O)c2ccc(CC)cc2)c(=O)[nH]c1=O,"inconclusive [inhibitor, single point]",–
C=Cc1ccc2c(c1)N(C)C(=C)S2,"inconclusive [inhibitor, single point]",–
COC(=O)c1ccc(C(=O)Nc2cc(Cl)ccc2Cl)cc1NC(=O)c1ccc(N(C)C)cc1,–,inactive: 21%
Cc1ccc(NC(=S)NCCc2ccc(Cl)cc2)c(C)c1,"inconclusive [inhibitor, partial curve]",–
CC(C)C(NC(=O)c1ccccc1)C(=O)NC1CCCc2ccccc21 (configuration not stated),"inconclusive [inhibitor, single point]",–
Cc1ccc(C(O)CN2C3=NCCN3c3ccccc32)cc1 (configuration not stated),"inconclusive [inhibitor, partial curve, poor fit]",–
Cc1cc(C)cc(N(CC(=O)NCc2ccc3c(c2)OCO3)C(=O)CCC(=O)Nc2ccccn2)c1,active: 1.31 µM,–
CC(=O)c1cccc(OCC(O)CNCC2COc3ccccc3O2)c1 (configuration not stated),–,inactive: -1.04%
Cc1ccc(NC(=O)CN2C(=O)NC(C)(C3CC3)C2=O)cc1S(=O)(=O)N1CCCCC1 (configuration not stated),"inconclusive [inhibitor, single point]",–
O=c1[nH]c(=S)[nH]c2sccc12,–,inactive: 20.1%
Cc1csc(NC(=O)/C=C/c2ccco2)n1,–,inactive: 254%
CCN(C(=O)c1cc(S(=O)(=O)N2CCCCC2)c[nH]1)c1ccc(OC)cc1,–,inactive: -1.93%
CC(=O)Nc1ccc(S(=O)(=O)c2ccc([N+](=O)[O-])cc2)cc1,"inconclusive [inhibitor, single point]",–
COC(=O)c1ccc(CN2CCC(n3nccc3NC(=O)C3CCCC3)CC2)cc1,"inconclusive [inhibitor, single point]",–
O=C(COC(=O)c1ccc(-n2cnnn2)cc1)c1ccc(Br)cc1,"inconclusive [inhibitor, single point]",–

Compound,Potency,"activity change, negative = inhibition"
Cc1cccc(OCC(=O)N/N=C/c2cn[nH]c2-c2ccc(Cl)c(Cl)c2)c1,"inconclusive [inhibitor, partial curve, poor fit]",–
CC1(C)OC(=O)NC1=O,–,inactive: -5.5%
C/C(CC(=O)NC1CCCCC1)=N\NC(=O)c1ccc(Br)cc1,–,inactive: 45.6%
O=C(Nc1ccccc1N1CCCC1)c1ccc(N2CCCC2=O)cc1,"inconclusive [inhibitor, single point]",–
O=C(c1cccc([N+](=O)[O-])c1)N1CCN(S(=O)(=O)N2CCCCC2)CC1,–,inactive: 17.2%
C/C=C/c1ccc(Oc2nnnn2-c2ccc(C(N)=O)cc2)c(OC)c1,"inconclusive [inhibitor, single point]",–
Cn1c(C(=O)N2CCN(c3ccc(Cl)cc3)CC2)cc2c(=O)[nH]c3ccccc3c21,"inconclusive [inhibitor, partial curve]",–
CC1CN(c2ccc([N+](=O)[O-])cc2C#N)CC(C)O1 (configuration not stated),"inconclusive [inhibitor, single point]",–
O=C(CC1C(=O)NCCN1Cc1cccc(F)c1F)NC1CCCCCC1 (configuration not stated),"inconclusive [inhibitor, single point]",–
Cc1cccc(CC(C)NC(=O)c2cc(COc3ccc(C)c(C)c3)on2)n1 (configuration not stated),"inconclusive [inhibitor, single point]",–
COc1ccc(-c2cc(-n3c(C(F)(F)F)nc4ccccc43)n(CCC#N)n2)cc1,active: 13.1 µM,–
CC(C)NC(=O)C(C)Oc1ccc(S(=O)(=O)NCc2ccc3c(c2)OCO3)cc1 (configuration not stated),"inconclusive [inhibitor, partial curve, poor fit]",–
Cc1ccc(NC(=O)CN(C)S(=O)(=O)c2ccc3c(c2)c(=O)n(C)c(=O)n3C)cc1,"inconclusive [inhibitor, single point]",–
CC(NC(=O)Cc1ccc([N+](=O)[O-])cc1)c1ccc2c(c1)OCO2 (configuration not stated),"inconclusive [inhibitor, single point]",–
CN(C)c1nc(N/N=C/c2ccccc2O)nc(Nc2ccc(F)cc2)n1,active: 3.7 µM,–
COc1cc(/C=N/NC(=O)Cc2csc(C)n2)ccc1OCC(C)C,"inconclusive [inhibitor, single point]",–
COc1ccc(CNC(=O)C(C)n2nc(C)c3c(C)n(-c4ccc(C)cc4)nc3c2=O)cc1 (configuration not stated),active: 13.1 µM,–
O=C1c2ccccc2C(=O)c2c(NCCCN(CCO)CCO)cccc21,"inconclusive [inhibitor, single point]",–
C/C=C/c1ccc(OCCSc2nc(C)cc(=O)[nH]2)c(OC)c1,"inconclusive [inhibitor, full curve, poor fit]",–
CCOC(=O)c1sc(NNC(=O)c2ccc(F)cc2)nc1C,"inconclusive [inhibitor, single point]",–
Fc1ccccc1CSc1nnnn1-c1ccc2c(c1)OCO2,"inconclusive [inhibitor, single point]",–
